Assay results published in the supplement of paper PMC3722116.
Growth of fresh clinical P. falciparum isolates by hypoxanthine uptake over 42 h; for most isolates 1.6-1,647 nM mefloquine, 0.044-87 nM artesunate, 10-10,256 nM chloroquine, 2.4-236 nM lumefantrine. EC50, lower = more sensitive; slope from the same fit, higher = steeper. No active / inactive call. Fits with a coefficient of variation above 100% are not listed here; 15-28% of fits exceed 15%. Isolates are numbered anew.

Assays:
chloroquine [1] = compound: T1, CCN(CC)CCCC(C)Nc1ccnc2cc(Cl)ccc12 [chloroquine]
Procedure: (§1)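 Hypoxanthine uptake by fresh isolates, duplicate serial dilutions, 24 h of drug plus 18 h after the label; sigmoid fit per isolate.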

artesunate [2] = compound: T2, C[C@H]1[C@H](OC(=O)CCC(=O)O)O[C@@H]2O[C@@]3(C)CC[C@H]4[C@H](C)CC[C@@H]1[C@@]24OO3 [artesunate]
Procedure: as §1

mefloquine [3] = compound: T3, OC(c1cc(C(F)(F)F)nc2c(C(F)(F)F)cccc12)C1CCCCN1 [mefloquine]
Procedure: as §1

lumefantrine [4] = compound: T4, CCCCN(CCCC)CC(O)c1cc(Cl)cc2c1-c1ccc(Cl)cc1/C2=C/c1ccc(Cl)cc1 [lumefantrine]
Procedure: as §1

chloroquine [5] = compound: T1, chloroquine; assay: slope of the dose-response curve (dimensionless); higher = steeper concentration-effect curve
Procedure: as §1

artesunate [6] = compound: T2, artesunate; assay: as above
Procedure: as §1

mefloquine [7] = compound: T3, mefloquine; assay: as above
Procedure: as §1

lumefantrine [8] = compound: T4, lumefantrine; assay: as above
Procedure: as §1

| Test System | EC50 of parasite growth (chloroquine [1]) | EC50 of parasite growth (artesunate [2]) | EC50 of parasite growth (mefloquine [3]) | EC50 of parasite growth (lumefantrine [4]) | slope (chloroquine [5]) | slope (artesunate [6]) | slope (mefloquine [7]) | slope (lumefantrine [8]) |
| --- | --- | --- | --- | --- | --- | --- | --- | --- |
| Plasmodium falciparum isolate 393 (pfmdr1 allele: 86N, 1042N, pfmdr1 copies: 2) | 0.192 µg/mL | 0.00195 µg/mL | 0.0481 µg/mL | 0.0301 µg/mL | 6.11 | 12.1 | 2.27 | 1.6 |
| Plasmodium falciparum isolate 232 (pfmdr1 allele: 86N, 1042N, pfmdr1 copies: 2) | 0.0528 µg/mL | 0.00105 µg/mL | 0.0373 µg/mL | 0.0268 µg/mL | 2.33 | 4.55 | 2.37 | 2.44 |
| Plasmodium falciparum isolate 90 (pfmdr1 allele: 86N, 1042N, pfmdr1 copies: 2) | 0.0452 µg/mL | 0.00105 µg/mL | 0.0499 µg/mL | 0.0613 µg/mL | 2.74 | 9.66 | 2.51 | 1.91 |
| Plasmodium falciparum isolate 100 (pfmdr1 allele: 86N, 1042N, pfmdr1 copies: 1) | 0.179 µg/mL | 0.00109 µg/mL | 0.0357 µg/mL | 0.0187 µg/mL | 3.03 | 7.54 | 2.98 | 1.89 |
| Plasmodium falciparum isolate 22 (pfmdr1 allele: 86N, 1042N, pfmdr1 copies: 1) | 0.0602 µg/mL | 0.00123 µg/mL | 0.0319 µg/mL | 0.0331 µg/mL | 3.02 | 6.06 | 2.15 | 2.1 |
| Plasmodium falciparum isolate 247 (pfmdr1 allele: 86N, 1042N, pfmdr1 copies: 2) | 0.0975 µg/mL | 0.000543 µg/mL | 0.0322 µg/mL | 0.0174 µg/mL | 2.8 | 5.62 | 3.21 | 2.6 |
| Plasmodium falciparum isolate 12 (pfmdr1 allele: 86N, 1042N, pfmdr1 copies: 1) | 0.279 µg/mL | 0.00131 µg/mL | 0.0404 µg/mL | 0.0124 µg/mL | 4.01 | 6.28 | 2.95 | 2.43 |
| Plasmodium falciparum isolate 61 (pfmdr1 allele: 86Y, pfmdr1 copies: 1) | 0.188 µg/mL | 0.000293 µg/mL | 0.00738 µg/mL | 0.012 µg/mL | 9.99 | 4.22 | 2.44 | 5.46 |
| Plasmodium falciparum isolate 39 (pfmdr1 allele: 86N, 1042N, pfmdr1 copies: 1) | 0.159 µg/mL | 0.000914 µg/mL | 0.0104 µg/mL | 0.0225 µg/mL | 7.25 | 9.46 | 1.67 | 3.37 |
| Plasmodium falciparum isolate 14 (pfmdr1 allele: 86N, 1042N, pfmdr1 copies: 3) | 0.057 µg/mL | 0.00108 µg/mL | 0.0574 µg/mL | 0.0363 µg/mL | 2.39 | 5.97 | 4.29 | 2.09 |
| Plasmodium falciparum isolate 413 (pfmdr1 allele: 86N, 1042N, pfmdr1 copies: 2) | 0.133 µg/mL | 0.00115 µg/mL | 0.0741 µg/mL | 0.0146 µg/mL | 3.32 | 6.33 | 2.84 | 2.12 |
| Plasmodium falciparum isolate 181 (pfmdr1 allele: 86N, 1042N, pfmdr1 copies: 1) | 0.0935 µg/mL | 0.000958 µg/mL | 0.0248 µg/mL | 0.0236 µg/mL | 6.18 | 4.64 | 2.8 | 3.01 |
| Plasmodium falciparum isolate 306 (pfmdr1 allele: 86N, 1042N, pfmdr1 copies: 2) | 0.17 µg/mL | 0.000961 µg/mL | 0.0602 µg/mL | 0.0192 µg/mL | 3.04 | 4.81 | 2.34 | 1.91 |
| Plasmodium falciparum isolate 359 (pfmdr1 allele: 86N, 1042N, pfmdr1 copies: 2) | 0.255 µg/mL | 0.00333 µg/mL | 0.0914 µg/mL | 0.0381 µg/mL | 4 | 5.62 | 3.13 | 2.03 |
| Plasmodium falciparum isolate 68 (pfmdr1 allele: 1042D, pfmdr1 copies: 1) | 0.337 µg/mL | 0.000488 µg/mL | 0.00199 µg/mL | 0.00337 µg/mL | 10 | 2.47 | 1.18 | 1.41 |
| Plasmodium falciparum isolate 424 (pfmdr1 allele: 86N, 1042N, pfmdr1 copies: 1) | 0.0962 µg/mL | 0.00103 µg/mL | 0.0416 µg/mL | 0.0546 µg/mL | 3.79 | 10 | 2.53 | 4.01 |
| Plasmodium falciparum isolate 129 (pfmdr1 allele: 86N, 1042N, pfmdr1 copies: 2) | 0.0922 µg/mL | 0.0023 µg/mL | 0.0456 µg/mL | 0.0361 µg/mL | 3.61 | 5.48 | 1.85 | 1.27 |
| Plasmodium falciparum isolate 195 (pfmdr1 allele: 86N, 1042N, pfmdr1 copies: 2) | 0.111 µg/mL | 0.000405 µg/mL | 0.0344 µg/mL | 0.0149 µg/mL | 2.93 | 4.11 | 1.65 | 1.24 |
| Plasmodium falciparum isolate 110 (pfmdr1 allele: 86N, 1042N, pfmdr1 copies: 1) | 0.228 µg/mL | 0.000345 µg/mL | 0.0108 µg/mL | 0.0107 µg/mL | 2.84 | 3.06 | 2.02 | 2.1 |
| Plasmodium falciparum isolate 54 (pfmdr1 allele: 86N, 1042N, pfmdr1 copies: 1) | 0.139 µg/mL | 0.00366 µg/mL | 0.0381 µg/mL | 0.0116 µg/mL | 3.96 | 3.64 | 1.1 | 1.36 |
| Plasmodium falciparum isolate 410 (pfmdr1 allele: 86N, 1042N, pfmdr1 copies: 1) | 0.0768 µg/mL | 0.000417 µg/mL | 0.025 µg/mL | 0.0197 µg/mL | 3.84 | 3.71 | 1.99 | 1.99 |

| Test System | EC50 of parasite growth (chloroquine [1]) | EC50 of parasite growth (artesunate [2]) | EC50 of parasite growth (mefloquine [3]) | EC50 of parasite growth (lumefantrine [4]) | slope (chloroquine [5]) | slope (artesunate [6]) | slope (mefloquine [7]) | slope (lumefantrine [8]) |
| --- | --- | --- | --- | --- | --- | --- | --- | --- |
| Plasmodium falciparum isolate 446 (pfmdr1 allele: 86N, 1042N, pfmdr1 copies: 2) | 0.0673 µg/mL | 0.000484 µg/mL | 0.0411 µg/mL | 0.0204 µg/mL | 4.3 | 7.27 | 2.89 | 2.81 |
| Plasmodium falciparum isolate 404 (pfmdr1 allele: 1042D, pfmdr1 copies: 1) | 0.0803 µg/mL | 0.000557 µg/mL | 0.00839 µg/mL | 0.0154 µg/mL | 4.47 | 4.79 | 2.82 | 2.68 |
| Plasmodium falciparum isolate 101 (pfmdr1 allele: 86N, 1042N, pfmdr1 copies: 2) | 0.0967 µg/mL | 0.00449 µg/mL | 0.0555 µg/mL | 0.0226 µg/mL | 4.99 | 4.53 | 3.72 | 3.36 |
| Plasmodium falciparum isolate 347 (pfmdr1 allele: 86N, 1042N, pfmdr1 copies: 1) | 0.113 µg/mL | 0.0011 µg/mL | 0.0264 µg/mL | 0.0188 µg/mL | 3.08 | 5.67 | 2.33 | 2.14 |
| Plasmodium falciparum isolate 239 (pfmdr1 allele: 86Y, pfmdr1 copies: 1) | 0.172 µg/mL | 0.000362 µg/mL | 0.00634 µg/mL | 0.00858 µg/mL | 6.59 | 5.28 | 2.73 | 2.28 |
| Plasmodium falciparum isolate 147 (pfmdr1 allele: 86N, 1042N, pfmdr1 copies: 1) | 0.0586 µg/mL | 0.000553 µg/mL | 0.0231 µg/mL | 0.0129 µg/mL | 2.89 | 6.33 | 2.72 | 1.92 |
| Plasmodium falciparum isolate 216 (pfmdr1 allele: 86N, 1042N, pfmdr1 copies: 1) | 0.199 µg/mL | 0.000384 µg/mL | 0.0208 µg/mL | 0.0106 µg/mL | 4.18 | 3.45 | 2.86 | 1.66 |
| Plasmodium falciparum isolate 346 (pfmdr1 allele: 86N, 1042N, pfmdr1 copies: 1) | 0.0293 µg/mL | 0.00216 µg/mL | 0.0241 µg/mL | 0.0208 µg/mL | 5.19 | 8.56 | 3.08 | 2.02 |
| Plasmodium falciparum isolate 238 (pfmdr1 allele: 86N, 1042N, pfmdr1 copies: 1) | 0.0504 µg/mL | 0.000311 µg/mL | 0.00592 µg/mL | 0.00195 µg/mL | 2.58 | 3.31 | 3.27 | 1.48 |
| Plasmodium falciparum isolate 159 (pfmdr1 allele: 86N, 1042N, pfmdr1 copies: 1) | 0.0925 µg/mL | 0.000591 µg/mL | 0.0321 µg/mL | 0.0134 µg/mL | 2.97 | 6.53 | 2.37 | 2.65 |
| Plasmodium falciparum isolate 180 (pfmdr1 allele: 86N, 1042N, pfmdr1 copies: 2) | 0.155 µg/mL | 0.000539 µg/mL | 0.058 µg/mL | 0.0238 µg/mL | 6.19 | 10 | 4.07 | 3.67 |
| Plasmodium falciparum isolate 29 (pfmdr1 allele: 86N, 1042N, pfmdr1 copies: 1) | 0.173 µg/mL | 0.000308 µg/mL | 0.0244 µg/mL | 0.00955 µg/mL | 1.54 | 5.69 | 1.72 | 1.64 |
| Plasmodium falciparum isolate 4 (pfmdr1 allele: 86N, 1042N, pfmdr1 copies: 1) | 0.0376 µg/mL | 0.000249 µg/mL | 0.00656 µg/mL | 0.00169 µg/mL | 1.73 | 1.54 | 1.63 | 0.97 |
| Plasmodium falciparum isolate 319 (pfmdr1 allele: 86N, 1042N, pfmdr1 copies: 1) | 0.14 µg/mL | 0.000399 µg/mL | 0.0133 µg/mL | 0.0222 µg/mL | 2.36 | 3.34 | 2.23 | 2.42 |
| Plasmodium falciparum isolate 169 (pfmdr1 allele: 86N, 1042N, pfmdr1 copies: 2) | 0.0709 µg/mL | 0.0011 µg/mL | 0.0725 µg/mL | 0.0457 µg/mL | 3.61 | 5.39 | 2.73 | 3.45 |
| Plasmodium falciparum isolate 317 (pfmdr1 allele: 86N, 1042N, pfmdr1 copies: 2) | 0.0365 µg/mL | 0.00199 µg/mL | 0.0522 µg/mL | 0.0273 µg/mL | 2 | 10 | 4.11 | 2.9 |
| Plasmodium falciparum isolate 259 (pfmdr1 allele: 86N, 1042N, pfmdr1 copies: 3) | 0.158 µg/mL | 0.0014 µg/mL | 0.0627 µg/mL | 0.0145 µg/mL | 3.27 | 7.81 | 3.06 | 2.58 |
| Plasmodium falciparum isolate 365 (pfmdr1 allele: 86N, 1042N, pfmdr1 copies: 2) | 0.0897 µg/mL | 0.000321 µg/mL | 0.0334 µg/mL | 0.0267 µg/mL | 5.75 | 4.97 | 2.86 | 2.64 |
| Plasmodium falciparum isolate 111 (pfmdr1 allele: 86N, 1042N, pfmdr1 copies: 1) | 0.0984 µg/mL | 0.00112 µg/mL | 0.0134 µg/mL | 0.0285 µg/mL | 4.45 | 4.37 | 2.01 | 2.19 |
| Plasmodium falciparum isolate 434 (pfmdr1 allele: 86N, 1042N, pfmdr1 copies: 3) | 0.0538 µg/mL | 0.00221 µg/mL | 0.101 µg/mL | 0.048 µg/mL | 2.19 | 5.84 | 3.68 | 1.8 |
